Results taken from PubChem BioAssay AID360 (National Center for Advancing Translational Sciences (NCATS), 2006).
Out of some 48,000 compounds screened, about 550 (1.1%) were called active. Not shown: some 4% with an inconclusive outcome. Rule as the data show it: active = potency below about 15 µM; inconclusive = mostly about 16 µM to 33 µM; inactive = weaker than that. Some of the results follow.

Molecular target: Lysosomal acid glucosylceramidase (Homo sapiens) (UniProt P04062)
Assay: Glucocerebrosidase;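 also: the screen sought inhibitors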
Conditions: purified enzyme, resorufin glucoside fluorescence (screen aimed at inhibitors), 20 min
How it was run: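 Compounds titrated against 0.2 nM normal enzyme, 30 uM resorufin beta-D-glucopyranoside substrate, citrate/phosphate buffer with taurocholate and tween-20, pH 5.9. Reaction ran 20 min at room temperature; fluorescence (Ex 548/Em 600) gave AC50.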
Potency is read from the fitted curve at half-maximal effect.

Sequence of UniProt P04062 (P04062 whole entry, looked up): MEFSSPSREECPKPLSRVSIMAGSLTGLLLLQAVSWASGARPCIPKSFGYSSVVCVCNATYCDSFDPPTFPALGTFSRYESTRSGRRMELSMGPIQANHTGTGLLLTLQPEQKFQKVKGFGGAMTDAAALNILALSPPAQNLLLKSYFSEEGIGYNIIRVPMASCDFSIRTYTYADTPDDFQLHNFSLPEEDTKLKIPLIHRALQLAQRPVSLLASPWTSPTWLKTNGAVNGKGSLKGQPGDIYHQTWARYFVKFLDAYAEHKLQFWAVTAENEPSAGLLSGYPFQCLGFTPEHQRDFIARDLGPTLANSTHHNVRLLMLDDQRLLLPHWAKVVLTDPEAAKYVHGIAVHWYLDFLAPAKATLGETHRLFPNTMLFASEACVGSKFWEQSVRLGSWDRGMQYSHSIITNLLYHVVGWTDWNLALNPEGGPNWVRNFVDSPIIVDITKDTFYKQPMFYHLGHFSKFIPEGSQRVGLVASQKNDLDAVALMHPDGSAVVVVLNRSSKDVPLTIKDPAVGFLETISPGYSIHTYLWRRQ

Potency, inactive:
O=C(OCC(=O)N1CCOCC1)c1ccccc1SCC(=O)N1CCCC1 > 76.9 µM
Nc1nnc(SCC(=O)N2CCN(c3ccccc3)CC2)n1-c1ccccc1 > 76.9 µM
CC(=O)NC(CCS(C)(=O)=O)C(=O)Nc1ccc(C)c(F)c1 (stereo not given) > 76.9 µM
Cc1c2c(nc3c(C)cccc13)OC(C)C2 (stereo not given) > 76.9 µM
Cc1ccccc1N=C1Nc2ccccc2CS1 > 76.9 µM
COc1ccccc1N1CCN(C(=O)c2cc(-c3ccc(C)cc3)on2)CC1 > 76.9 µM
O=C(COc1ccc(Cl)cc1Cl)NC(=O)N1CCOCC1 > 76.9 µM
O=c1cc(CNC2CCCCC2)c2ccccc2[nH]1 > 76.9 µM
CC(C)CNC(=O)CN(C1CCCCC1)S(C)(=O)=O > 76.9 µM
O=C(CNC(=O)c1ccco1)OCc1ccc(C(=O)Oc2ccccc2)cc1 > 76.9 µM
COc1ccc2oc(C)c(C(=O)Cn3ccnc3)c2c1
CCn1c(=O)cc(SCC(=O)Nc2cccnc2)c2ccccc21 > 76.9 µM
CCOC(=O)c1nc(S(C)(=O)=O)ncc1Cl > 76.9 µM
CCC1(C)Cc2c(sc3nc(SCC(=O)O)[nH]c(=O)c23)CO1 (stereo not given) > 76.9 µM
CN(C(=O)c1cc2n(n1)C(C(F)(F)F)CC(c1ccco1)N2)c1ccc(OC(F)(F)F)cc1 (stereo not given) > 76.9 µM
Cc1cc(C)c(C#N)c(SCC(=O)Nc2nnc(-c3ccccc3)s2)n1 > 76.9 µM
COc1cccc(OC)c1C(=O)Nc1ccc(N2CCN(S(C)(=O)=O)CC2)cc1 > 76.9 µM
COc1ccccc1OCc1nnc(SCC(=O)Nc2ccc(C)cc2)n1C > 76.9 µM
CCOC(=O)c1c(NC(=O)CSc2nc3c(c(=O)n(C)c(=O)n3C)n2C(C)C)sc(C)c1C > 76.9 µM
Cc1nn(Cc2ccccc2)c(Cl)c1C(=O)OCc1nnc(-c2ccccc2)o1 > 76.9 µM
Cc1noc(/C=C/N(C)C)c1S(=O)(=O)N1CCCC(C(=O)NC(C)c2ccccc2)C1 (stereo not given) > 76.9 µM
CCOC(=O)Cc1csc(NC(=O)c2cccnc2)n1 > 76.9 µM
Cc1nnc(SCC(=O)N2CCN(S(=O)(=O)c3ccccc3)CC2)n1Cc1ccccc1 > 76.9 µM
COc1cc(-c2csc(C)n2)ccc1O > 76.9 µM
COc1cccc(CC(NC(C)=O)C(=O)NC2CCN(c3nc(C)cc(C)c3C#N)CC2)c1OC (stereo not given) > 76.9 µM
Cc1ccccc1C(C(=O)NCc1ccco1)N(CC1CCCO1)C(=O)Cn1nnc2ccccc21 (stereo not given) > 76.9 µM
Cc1nc2ccccc2c2c1C(=O)N(C)C2=O > 76.9 µM
O=C(Nc1cccc2cccnc12)c1cccnc1 > 76.9 µM
Cc1cc(NC(=O)CSc2ccc(Cl)cc2)no1 > 76.9 µM
O=C(OCn1nnc2ccccc2c1=O)c1ccc(Br)o1 > 76.9 µM
CCOc1ccc(Oc2nc(NCC(C)C)nc(N(C)C)n2)nn1 > 76.9 µM
CCCC(=O)Nc1nnc(COC)s1 > 76.9 µM
O=C(/C=C1\NC2(CCCC2)Cc2ccccc21)N1CCOCC1 > 76.9 µM
CCCCCCNC(=O)CCNC(=O)c1cc(OC)c(OC)c(OC)c1 > 76.9 µM
C=CCN1C(=O)CN=C1Nc1cc(C)cc(C)c1 > 76.9 µM
CC(C)n1c(=NC(=O)c2ccco2)c(C#N)cc2c(=O)n3ccccc3cc21 > 76.9 µM
CCC(=O)NC(C)C(c1cccs1)N1CCN(c2ccccc2)CC1 (stereo not given) > 76.9 µM
O=C1N(S(=O)(=O)c2ccccc2F)C(=O)C2(CCCC2)N1S(=O)(=O)c1ccccc1F > 76.9 µM
CCOc1ccc(OCC(=O)c2c(O)c3ccccc3oc2=O)cc1 > 76.9 µM
Cc1nnc(SC(C)C(=O)Nc2ccc(S(=O)(=O)N3CCCCC3)cc2)s1 (stereo not given) > 76.9 µM
CC(=O)N1CCc2cc(S(=O)(=O)NC(CC(C)C)C(=O)N3CCc4ccccc4C3)ccc21 (stereo not given) > 76.9 µM
COc1ccc(OC)c(-c2cc(C(=O)Nc3cc(C)on3)no2)c1 > 76.9 µM
CCOc1ncccc1C(=O)OCC(=O)c1c(N)n(C)c(=O)n(C)c1=O > 76.9 µM
CC(C)(C)C(=O)C(CO)(Oc1ccc(Cl)cc1)n1cncn1 (stereo not given) > 76.9 µM
CCC(C)(C)n1nnnc1C(c1ccc(OC)c(OC)c1)N1CCN(c2ccc(OC)cc2)CC1 (stereo not given) > 76.9 µM
N#Cc1nc(-c2ccco2)oc1NCc1ccco1 > 76.9 µM
COCCOC(=O)c1c(C)n(C)c2ccc(OC(=O)c3cccs3)cc12 > 76.9 µM
Cc1ccc(S(=O)(=O)NCCOCCNS(=O)(=O)c2ccc(C)cc2)cc1 > 76.9 µM
COc1cccc(NC(=O)CC2(CC(=O)O)CCCC2)c1 > 76.9 µM
CCN(CC)CCCN1C(=O)C(=O)/C(=C(/O)c2c(C)nc3ccccn23)C1c1ccc(C)o1 (stereo not given) > 76.9 µM
CCC(c1nnc(SCCNCCO)n1CCN1CCOCC1)N(C)C (stereo not given) > 76.9 µM
CC(C)OC(=O)CSc1nnc(-c2ccco2)n1N > 76.9 µM
CCOC(=O)CN1C(=O)C(O)(CC(=O)c2cccc(OC)c2)c2ccccc21 (stereo not given) > 76.9 µM
O=C(Nc1ccc(F)cc1)c1cccnc1N1CCOCC1 > 76.9 µM
Cc1ccc(S(=O)(=O)N2CCOCC2)cc1C(=O)N1C(=O)c2cccc(N)c2C1=O > 76.9 µM
CCOc1cc(C(=O)N2CCOCC2)ccc1OCc1ccccc1 > 76.9 µM
CCn1c(CNc2ccc(OC)cc2)nnc1SCC(=O)N1CCCc2ccccc21 > 76.9 µM
CC(=O)c1c(C)n(C)c2ccc(OC(=O)c3ccco3)cc12 > 76.9 µM
O=C(c1cnn2c(C(F)(F)F)cc(-c3ccc4c(c3)OCO4)nc12)N1CCCC1 > 76.9 µM
COc1ccc(OC)c(NC(=O)CSc2nnnn2-c2ccccc2F)c1 > 76.9 µM
N#Cc1sc2nc(-c3ccccc3)cc(-c3ccco3)c2c1N > 76.9 µM
CCn1c(SCC(=O)NCc2ccco2)nc2c(c1=O)SC(C)C2 (stereo not given) > 76.9 µM
Cn1c(C(=O)N2CCN(C(=O)c3ccco3)CC2)cc2c(=O)n3ccccc3nc21 > 76.9 µM
CC1CCCN(C(=O)C2CCN(CCCc3ccccc3)CC2)C1 (stereo not given) > 76.9 µM
CCn1c(SCC(=O)OCc2ccccc2)nc2c1c(=O)n(C)c(=O)n2C > 76.9 µM
COC(=O)c1ccc(NC(=O)N2CCOCC2)cc1 > 76.9 µM
Cc1nc(CCNC(=O)c2cccs2)cs1 > 76.9 µM
Cn1c(SCC(=O)N2CCOCC2)nc2sc3c(c2c1=O)CCCC3 > 76.9 µM
CCCn1c(=NC(=O)c2ccncc2)c(C(=O)OCC)cc2c(=O)n3cccc(C)c3nc21 > 76.9 µM
CN(C)C(=O)N1CCC(C(=O)NCC2CCCO2)CC1 (stereo not given) > 76.9 µM
Cc1cc(=O)oc2cc(NC(=O)CCCC(=O)O)ccc12 > 76.9 µM
CC1(C)NC(=O)N(CCOCCSc2ccccc2)C1=O > 76.9 µM
COc1ccc(OC)c(NC(=O)CCN2CCC(C)CC2)c1 > 76.9 µM
O=C(CCS(=O)(=O)c1cccs1)N1CCCC1 > 76.9 µM
N#Cc1c(NC(=O)CSc2ncc(-c3ccccc3)n2CC2CCCO2)sc2c1CCCC2 (stereo not given) > 76.9 µM
Cc1cc2c(=O)n(CC(=O)N3CCN(c4ccccc4)CC3)cnc2s1 > 76.9 µM
CC(C)[C@@H]1NC(=O)N(c2ccc(Oc3ccccc3)cc2)C1=O > 76.9 µM
COc1ccc(NC(=O)C2CC(=O)OC2(C)C)cc1 (stereo not given) > 76.9 µM
CCc1ccc(NC2=NC(C(=O)NC3CCCCC3)CC(=O)N2)cc1 (stereo not given) > 76.9 µM
O=C(COc1ncnc2ccccc12)N1CCN(S(=O)(=O)c2ccccc2)CC1 > 76.9 µM
CCOC(=O)c1c(C)[nH]c(C(=O)COC(=O)c2cn(CC)c3nc(C)ccc3c2=O)c1C > 76.9 µM
O=C(Cc1cccs1)N1CCN(C(=O)C2CCCO2)CC1 (stereo not given) > 76.9 µM
O=C(NCc1ccco1)c1ccc2c(c1)C(=O)N(Cc1ccccc1)C2=O > 76.9 µM
O=C(Cn1nc(C(F)(F)F)c2c1CCC2)N1CCN(c2ccccc2)CC1 > 76.9 µM
O=C1NCCCC1C(=O)Nc1ccccn1 (stereo not given) > 76.9 µM
Cc1nn(-c2ccccc2)c2sc(C(=O)OCC(=O)N3CCCCC3)cc12 > 76.9 µM
Cc1ncsc1CCSc1n[nH]c(=O)n1-c1ccccc1 > 76.9 µM
CCCOc1ccc2c3c(c(=O)oc2c1)CCCC3 > 76.9 µM
CCOC(=O)CN1C(=O)C(CC)Oc2ccccc21 (stereo not given) > 76.9 µM
O=C(c1ccc2c(=O)n(-c3ccccc3)c(=O)[nH]c2c1)N1CCN(c2ccc(F)cc2)CC1 > 76.9 µM
